# Data as given in the supplement of paper PMC8728848.
# The other results are listed elsewhere or left out.
# B1: RS2L (Ralstonia solanacearum), B5RXL5_RALSO (protein)
# chain: MAQQGVFTLPANTSFGVTAFANAANTQTIQVLVDNVVKATFTGSGTSDKLLGSQVLNSGSGAIKIQVSVNGKPSDLVSNQTILANKLNFAMVGSEDGTDNDYNDGIAVLNWPLG
# Tests used:
# Experiment in all cases: glycan array binding signal (z-score within array); higher = stronger binding
# Conditions in all cases: glycan notation: IUPAC condensed, linker removed
# [1] = molecular target: Man(a1-2)Man(a1-3)[Man(a1-6)]Man(a1-6)[Man(a1-2)Man(a1-3)]Man(b1-4)GlcNAc(b1-4)GlcNAc
# Summary of the method: (§1)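 Columns mapping to the same glycan were averaged after glycan names were converted to IUPAC-condensed notation. The data come from 3228 arrays in the Consortium for Functional Glycomics database, limited to those with an available protein sequence. Binding is reported as a within-array Z-score averaged across arrays of one protein sequence and across linkers.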
# [2] = molecular target: Man(a1-2)Man(a1-6)[Man(a1-3)]Man(a1-6)[Man(a1-2)Man(a1-2)Man(a1-3)]Man
# Summary of the method: as §1
# [3] = molecular target: Man(a1-2)Man(a1-6)[Man(a1-3)]Man(a1-6)[Man(a1-2)Man(a1-2)Man(a1-3)]Man(b1-4)GlcNAc(b1-4)GlcNAc
# Summary of the method: as §1
# [4] = molecular target: Man(a1-3)[Man(a1-6)]Man
# Summary of the method: as §1
# [5] = molecular target: Man(a1-3)[Man(a1-6)]Man(a1-6)[Man(a1-2)Man(a1-3)]Man(b1-4)GlcNAc(b1-4)GlcNAc
# Summary of the method: as §1
# [6] = molecular target: Man(a1-3)[Man(a1-6)]Man(a1-6)[Man(a1-3)]Man
# Summary of the method: as §1
# [7] = molecular target: Man(a1-3)[Man(a1-6)]Man(a1-6)[Man(a1-3)]Man(b1-4)GlcNAc(b1-4)GlcNAc
# Summary of the method: as §1
# [8] = molecular target: Man(a1-3)[Man(a1-6)]Man(b1-4)GlcNAc(b1-4)GlcNAc
# Summary of the method: as §1
# [9] = molecular target: Man(a1-6)Man
# Summary of the method: as §1
# [10] = molecular target: Man(b1-4)GlcNAc
# Summary of the method: as §1
# [11] = molecular target: Neu5Ac(a2-3)Gal
# Summary of the method: as §1
# [12] = molecular target: Neu5Ac(a2-3)Gal(b1-3)GalNAc
# Summary of the method: as §1
# [13] = molecular target: Neu5Ac(a2-3)Gal(b1-3)GalNAc(b1-3)Gal(a1-4)Gal(b1-4)Glc
# Summary of the method: as §1
# [14] = molecular target: Neu5Ac(a2-3)Gal(b1-3)GalNAc(b1-4)[Neu5Ac(a2-3)]Gal(b1-4)Glc
# Summary of the method: as §1
# [15] = molecular target: Neu5Ac(a2-3)Gal(b1-3)GalNAc(b1-4)[Neu5Ac(a2-8)Neu5Ac(a2-3)]Gal(b1-4)Glc
# Summary of the method: as §1
# [16] = molecular target: Neu5Ac(a2-3)Gal(b1-3)GalNAc6S
# Summary of the method: as §1
# [17] = molecular target: Neu5Ac(a2-3)Gal(b1-3)GlcNAc
# Summary of the method: as §1
# [18] = molecular target: Neu5Ac(a2-3)Gal(b1-3)GlcNAc(b1-3)Gal(b1-3)GlcNAc
# Summary of the method: as §1
# [19] = molecular target: Neu5Ac(a2-3)Gal(b1-3)GlcNAc(b1-3)Gal(b1-4)GlcNAc
# Summary of the method: as §1
# [20] = molecular target: Neu5Ac(a2-3)Gal(b1-3)GlcNAc(b1-3)GalNAc
# Summary of the method: as §1
# [21] = molecular target: Neu5Ac(a2-3)Gal(b1-3)GlcNAc6S
# Summary of the method: as §1
# [22] = molecular target: Neu5Ac(a2-3)Gal(b1-3)[Fuc(a1-4)]GlcNAc
# Summary of the method: as §1
# [23] = molecular target: Neu5Ac(a2-3)Gal(b1-3)[Fuc(a1-4)]GlcNAc(b1-3)Gal(b1-3)[Fuc(a1-4)]GlcNAc
# Summary of the method: as §1
# [24] = molecular target: Neu5Ac(a2-3)Gal(b1-3)[Fuc(a1-4)]GlcNAc(b1-3)Gal(b1-4)[Fuc(a1-3)]GlcNAc
# Summary of the method: as §1
# [25] = molecular target: Neu5Ac(a2-3)Gal(b1-3)[Neu5Ac(a2-3)Gal(b1-4)]GlcNAc
# Summary of the method: as §1
# [26] = molecular target: Neu5Ac(a2-3)Gal(b1-3)[Neu5Ac(a2-6)]GalNAc
# Summary of the method: as §1
# [27] = molecular target: Neu5Ac(a2-3)Gal(b1-4)Glc
# Summary of the method: as §1
# [28] = molecular target: Neu5Ac(a2-3)Gal(b1-4)GlcNAc
# Summary of the method: as §1
# [29] = molecular target: Neu5Ac(a2-3)Gal(b1-4)GlcNAc(b1-2)Man(a1-3)[GlcNAc(b1-2)Man(b1-4)GlcNAc(b1-2)Man(a1-6)]Man(b1-4)GlcNAc(b1-4)GlcNAc
# Summary of the method: as §1
# [30] = molecular target: Neu5Ac(a2-3)Gal(b1-4)GlcNAc(b1-2)Man(a1-3)[Neu5Ac(a2-6)Gal(b1-4)GlcNAc(b1-2)Man(a1-6)]Man(b1-4)GlcNAc(b1-4)GlcNAc
# Summary of the method: as §1
# [31] = molecular target: Neu5Ac(a2-3)Gal(b1-4)GlcNAc(b1-3)Gal
# Summary of the method: as §1
# [32] = molecular target: Neu5Ac(a2-3)Gal(b1-4)GlcNAc(b1-3)Gal(b1-3)GlcNAc
# Summary of the method: as §1
# [33] = molecular target: Neu5Ac(a2-3)Gal(b1-4)GlcNAc(b1-3)Gal(b1-4)GlcNAc
# Summary of the method: as §1
# [34] = molecular target: Neu5Ac(a2-3)Gal(b1-4)GlcNAc(b1-3)Gal(b1-4)GlcNAc(b1-3)Gal(b1-4)GlcNAc
# Summary of the method: as §1
# [35] = molecular target: Neu5Ac(a2-3)Gal(b1-4)GlcNAc(b1-3)Gal(b1-4)[Fuc(a1-3)]GlcNAc
# Summary of the method: as §1
# [36] = molecular target: Neu5Ac(a2-3)Gal(b1-4)GlcNAc(b1-3)GalNAc
# Summary of the method: as §1
# [37] = molecular target: Neu5Ac(a2-3)Gal(b1-4)GlcNAc(b1-6)[Gal(b1-3)]GalNAc
# Summary of the method: as §1
# [38] = molecular target: Neu5Ac(a2-3)Gal(b1-4)GlcNAc(b1-6)[Neu5Ac(a2-3)Gal(b1-3)]GalNAc
# Summary of the method: as §1
# [39] = molecular target: Neu5Ac(a2-3)Gal(b1-4)GlcNAc6S
# Summary of the method: as §1
# [40] = molecular target: Neu5Ac(a2-3)Gal(b1-4)[Fuc(a1-3)]GlcNAc
# Summary of the method: as §1
# [41] = molecular target: Neu5Ac(a2-3)Gal(b1-4)[Fuc(a1-3)]GlcNAc(b1-3)Gal
# Summary of the method: as §1
# [42] = molecular target: Neu5Ac(a2-3)Gal(b1-4)[Fuc(a1-3)]GlcNAc(b1-3)Gal(b1-4)GlcNAc
# Summary of the method: as §1
# [43] = molecular target: Neu5Ac(a2-3)Gal(b1-4)[Fuc(a1-3)]GlcNAc(b1-3)Gal(b1-4)[Fuc(a1-3)]GlcNAc(b1-3)Gal(b1-4)[Fuc(a1-3)]GlcNAc
# Summary of the method: as §1
# [44] = molecular target: Neu5Ac(a2-3)Gal(b1-4)[Fuc(a1-3)]GlcNAc(b1-3)GalNAc
# Summary of the method: as §1
# [45] = molecular target: Neu5Ac(a2-3)Gal(b1-4)[Fuc(a1-3)]GlcNAc(b1-6)[Gal(b1-3)]GalNAc
# Summary of the method: as §1
binder,measurement,setting,value
B1,glycan array binding signal (z-score),[1],3.58
same,glycan array binding signal (z-score),[2],5.7
same,glycan array binding signal (z-score),[3],5.97
same,glycan array binding signal (z-score),[4],7.32
same,glycan array binding signal (z-score),[5],6.99
same,glycan array binding signal (z-score),[6],5.11
same,glycan array binding signal (z-score),[7],5.42
same,glycan array binding signal (z-score),[8],3.86
same,glycan array binding signal (z-score),[9],0.413
same,glycan array binding signal (z-score),[10],-0.242
same,glycan array binding signal (z-score),[11],-0.251
same,glycan array binding signal (z-score),[12],-0.239
same,glycan array binding signal (z-score),[13],-0.25
same,glycan array binding signal (z-score),[14],-0.252
same,glycan array binding signal (z-score),[15],-0.217
same,glycan array binding signal (z-score),[16],-0.252
same,glycan array binding signal (z-score),[17],-0.247
same,glycan array binding signal (z-score),[18],-0.244
same,glycan array binding signal (z-score),[19],-0.226
same,glycan array binding signal (z-score),[20],-0.235
same,glycan array binding signal (z-score),[21],-0.246
same,glycan array binding signal (z-score),[22],-0.188
same,glycan array binding signal (z-score),[23],0.105
same,glycan array binding signal (z-score),[24],-0.023
same,glycan array binding signal (z-score),[25],-0.251
same,glycan array binding signal (z-score),[26],-0.13
same,glycan array binding signal (z-score),[27],-0.249
same,glycan array binding signal (z-score),[28],-0.243
same,glycan array binding signal (z-score),[29],-0.245
same,glycan array binding signal (z-score),[30],-0.244
same,glycan array binding signal (z-score),[31],-0.219
same,glycan array binding signal (z-score),[32],-0.235
same,glycan array binding signal (z-score),[33],-0.247
same,glycan array binding signal (z-score),[34],-0.242
same,glycan array binding signal (z-score),[35],-0.245
same,glycan array binding signal (z-score),[36],-0.244
same,glycan array binding signal (z-score),[37],-0.25
same,glycan array binding signal (z-score),[38],-0.254
same,glycan array binding signal (z-score),[39],-0.24
same,glycan array binding signal (z-score),[40],-0.232
same,glycan array binding signal (z-score),[41],-0.253
same,glycan array binding signal (z-score),[42],-0.22
same,glycan array binding signal (z-score),[43],-0.12
same,glycan array binding signal (z-score),[44],-0.213
same,glycan array binding signal (z-score),[45],-0.242
